The results in this text go back to ChEMBL document CHEMBL4813913, “In vitro identification of imidazo[1,2-a]pyrazine-based antileishmanial agents and evaluation of L. major casein kinase 1 inhibition” (Eur J Med Chem, 2021).

Data set [1] addresses T1, Serine/threonine-protein kinase pim-1 (Homo sapiens, UniProt P11309). The data set is described as follows: Inhibition of recombinant human PIM1 expressed in bacteria using histone H1 as substrate in presence of [gamma-33P]ATP by radiometric assay. It is filed as ADME.
The nature of data set [2]: Toxicity against Galleria mellonella larva assessed as cuticular darkening at 50 mg/kg measured for 7 days. It is filed as organism-based. The note with it: in vivo, 168 h, time 7 day. The gist of the method:
(§1)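 G. mellonella larvae (6th stage, 260–320 mg), groups of ten. Injected in the 4th left pro-leg with 10 μL at 10–50 mg/kg; controls got PBS/DMSO (DMSO <40%). Kept in the dark at 37 °C. Survival and cuticular darkening scored daily for 7 days; death taken as no movement on stimulus. Kaplan-Meier with log-rank test; two independent experiments.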

In data set [3] the target is T2, CDK2/Cyclin A2 (Homo sapiens, UniProt P24941). The data set is described as follows: Inhibition of human CDK2/ cyclinA using histone H1 as substrate in presence of [gamma-33P]ATP by radiometric assay. It is filed as ADME, protein-complex assay.
Data set [4] in a line: Inhibition of recombinant Leishmania major CK1.2 expressed in bacterial expression system using RRKHAAIGSpAYSITA as substrate in presence of [gamma-33P]ATP by radiometric assay.
Data set [5] concerns the target T3, CDK9/cyclin T1 (Homo sapiens, UniProt P50750). Description: Inhibition of human recombinant CDK9/CyclinT expressed in baculovirus infected Sf9 cells using YSPTSPSYSPTSPSYSPTSPSKKK as substrate in presence of [gamma-33P]ATP by radiometric assay.
Data set [6] in a line: Toxicity against Galleria mellonella larva assessed as reduction of viability at 50 mg/kg measured for 7 days. It is filed as organism-based. The settings on record: in vivo, 168 h, time 7 day. The gist of the method: as §1
Data set [7] deals with T4, Dual specificity protein kinase CLK1 (Mus musculus, UniProt P22518). The data set is described as follows: Inhibition of recombinant mouse CLK1 expressed in bacteria using GRSRSRSRSRSR as substrate in presence of [gamma-33P]ATP by radiometric assay. It is filed as ADME.
Data set [8] addresses T5, Cyclin-dependent kinase 5/CDK5 activator 1 (Homo sapiens, UniProt Q00535). Description: Inhibition of human recombinant CDK5/ p25 expressed in bacterial expression system using histone H1 as substrate in presence of [gamma-33P]ATP by radiometric assay. It is filed as ADME.
For a further data set, the system named is Leishmania donovani. The data set is described as follows: Antileishmanial activity against amastigote stage of Leishmania donovani (MHOM/ET/67/HU3) infected in mouse RAW264.7 cells assessed as reduction in parasitic proliferation measured by SYBR Green 1 dye based fluorescence assay. The settings on record: MHOM/ET/67/HU3, RAW264.7. It is filed as functional, organism-based. The gist of the method:
(§2)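 RAW 264.7 macrophages seeded at 100,000 cells/well in DMEM with 10% heat-inactivated FBS, 24 h at 37 °C, 5% CO₂. Infected with plateau-phase promastigotes (parasite:macrophage 16:1) for 24 h. Compounds serially diluted, final 391 nM–100 μM. Amastigote viability read by SYBR Green I after lysis and 3 freeze-thaw cycles. IC50 by nonlinear regression against excipient-treated controls. Miltefosine reference.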

Another data set deals with Leishmania major. The data set is described as follows: Antileishmanial activity against amastigote stage of Leishmania major (MHOM/IL/81/BNI) infected in BALB/c mouse peritoneal macrophages assessed as reduction in parasitic proliferation measured after 4 days by MayGrunwald-Giemsa stain based microscopic method. It is filed as functional, organism-based. The note with it: Peritoneal macrophage, 96 h. The gist of the method: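 BALB/c peritoneal macrophages on glass slides, 1.5×10⁵ cells/mL in RPMI 1640 with 15% FBS, 24 h attachment. Infected with stationary-phase promastigotes (1.5×10⁶/mL) for 24 h at 37 °C, 5% CO₂. Washed, then exposed 4 days to 100, 10, 1, 0.1 μM (DMSO ≤1% final). Methanol-fixed, May-Grunwald-Giemsa stained, amastigotes counted in 100 macrophages per duplicate well. IC50 from amastigotes/macrophage. Run twice.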

Data set [9] has as its target T6, Receptor-interacting serine/threonine-protein kinase 3 (Homo sapiens, UniProt Q9Y572). The data set is described as follows: Inhibition of recombinant human RIPK3 expressed in baculovirus infected Sf9 cells using MBP as substrate in presence of [gamma-33P]ATP by radiometric assay.
Data set [10] can be described thus: Cytotoxicity against mouse RAW264.7 cells assessed as reduction in cell growth measured after 48 hrs by SYBR Green 1 dye based fluorescence assay. The gist of the method:
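RAW 264.7 cells seeded at 100,000 cells/well in DMEM with 10% FBS, 24 h at 37 °C, 5% CO₂. Two-fold serial dilutions, final 49 nM–100 μM, for 48 h. Growth read by SYBR Green I. CC50 by nonlinear regression. Miltefosine reference; untreated cells as growth control.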

Data set [11] can be described thus: Cytotoxicity against human MRC5 cells assessed as reduction in cell viability measured after 96 hrs by resazurin assay. It is filed as cell-based. The gist of the method:
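Human MRC-5 fibroblasts grown in RPMI 1640 with 10% FBS. Exposed to 100, 10 and 1 μM in triplicate for 96 h. Then 10 μL of 700 μM resazurin added for 4 h and fluorescence read. Value is the mean of triplicates.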
For orientation: The colour change of resazurin is a common sign of viable cells or microbes.

Data set [12] addresses T7, Aurora kinase B (Homo sapiens, UniProt Q96GD4). Description: Inhibition of recombinant human AURKB expressed in baculovirus infected Sf9 cells using MBP as substrate in presence of [gamma-33P]ATP measured by radiometric assay.
In data set [13] the target is T8, Glycogen synthase kinase-3 (Sus scrofa, UniProt B2LUN4+I6LNT8). Description: Inhibition of pig brain GSK alpha/beta using YRRAAVPPSPSLSRHSSPHQSpEDEEE as substrate in presence of [gamma-33P]ATP by radiometric assay. It is filed as ADME, Sus scrofa domesticus.
For data set [14], the target named is T9, Dual specificity tyrosine-phosphorylation-regulated kinase 1A (Rattus norvegicus, UniProt Q63470). The data set is described as follows: Inhibition of recombinant rat DYRK1A (1 to 499 ) expressed in bacterial expression system using KKISGRLSPIMTEQ as substrate in presence of [gamma-33P]ATP measured by radiometric assay.
For data set [15], the target named is T2, CDK2/Cyclin A2. Description: Inhibition of human CDK2/ cyclinA using histone H1 as substrate in presence of ATP measured after 30 mins by ADP-Glo assay. It is filed as protein-complex assay.
The target in data set [16] is T1, Serine/threonine-protein kinase pim-1. Description: Inhibition of recombinant human PIM1 expressed in bacteria using histone H1 as substrate in presence of ATP measured after 30 mins by ADP-Glo assay. The settings on record: 0.5 h. Background: ADP-Glo turns the ADP formed in a reaction into a luminescent signal.
For data set [17], the target named is T3, CDK9/cyclin T1. The data set is described as follows: Inhibition of human recombinant CDK9/CyclinT expressed in baculovirus infected Sf9 cells using YSPTSPSYSPTSPSYSPTSPSKKK as substrate in presence of ATP measured after 30 mins by ADP-Glo assay.
The subject of the next data set is Leishmania infantum. Description: Antileishmanial activity against amastigote stage of Leishmania infantum (MHOM/FR/2008/LEM5700) infected in mouse RAW264.7 cells assessed as reduction in parasitic proliferation measured by SYBR Green 1 dye based fluorescence assay. It is filed as functional, organism-based. The note with it: MHOM/FR/2008/LEM5700, RAW264.7. The gist of the method:
as §2

For data set [18], the target named is T5, Cyclin-dependent kinase 5/CDK5 activator 1. Description: Inhibition of human recombinant CDK5/ p25 expressed in bacterial expression system using histone H1 as substrate in presence of ATP measured after 30 mins by ADP-Glo assay.
For data set [19], the target named is Casein kinase I isoform epsilon (Homo sapiens, UniProt P49674). The data set is described as follows: Inhibition of recombinant human CK1 epsilon expressed in baculovirus infected Sf9 cells using RRKHAAIGSpAYSITA as substrate. It is filed as ADME.
The target in data set [20] is T8, Glycogen synthase kinase-3. Description: Inhibition of pig brain GSK alpha/beta using YRRAAVPPSPSLSRHSSPHQSpEDEEE as substrate in presence of ATP measured after 30 mins by ADP-Glo assay. It is filed as ADME, tissue-based, Sus scrofa domesticus.
Another data set has as its system Leishmania braziliensis. The data set is described as follows: Antileishmanial activity against amastigote stage of Leishmania braziliensis (MHOM/BR/75/M2903b) infected in mouse RAW264.7 cells assessed as reduction in parasitic proliferation measured by SYBR Green 1 dye based fluorescence assay. It is filed as functional, organism-based. The gist of the method:
as §2

The target in data set [21] is T9, Dual specificity tyrosine-phosphorylation-regulated kinase 1A. The data set is described as follows: Inhibition of recombinant rat DYRK1A (1 to 499 ) expressed in bacterial expression system using KKISGRLSPIMTEQ as substrate in presence of ATP measured after 30 mins by ADP-Glo assay. The note with it: 0.5 h.
The nature of data set [22]: Inhibition of recombinant Leishmania major CK1.2 expressed in bacterial expression system using RRKHAAIGSpAYSITA as substrate in presence of ATP measured after 30 mins by ADP-Glo assay.
Another data set concerns Leishmania amazonensis. Description: Antileishmanial activity against amastigote stage Leishmania amazonensis (MHOM/BR/73/M2269) infected in mouse RAW264.7 cells assessed as reduction in parasitic proliferation measured by SYBR Green 1 dye based fluorescence assay. It is filed as functional, organism-based. The settings on record: MHOM/BR/73/M2269, RAW264.7. The gist of the method: as §2

Data set [23] addresses T7, Aurora kinase B. The data set is described as follows: Inhibition of recombinant human AURKB expressed in baculovirus infected Sf9 cells using MBP as substrate in presence of ATP measured after 30 mins by ADP-Glo assay. The note with it: sf9, 0.5 h.
For data set [24], the target named is T6, Receptor-interacting serine/threonine-protein kinase 3. Description: Inhibition of recombinant human RIPK3 expressed in baculovirus infected Sf9 cells using MBP as substrate in presence of ATP measured after 30 mins by ADP-Glo assay. It is filed as ADME. The note with it: sf9, 0.5 h.
For data set [25], the target named is T4, Dual specificity protein kinase CLK1. The data set is described as follows: Inhibition of recombinant mouse CLK1 expressed in bacteria using GRSRSRSRSRSR as substrate in presence of ATP measured after 30 mins by ADP-Glo assay.

Where only a bound is given, the exact number is not on record here.

In general, IC50 refers to the concentration needed to halve the response being measured. For orientation: CC50 means the concentration that lowers cell viability or growth by half. Take `Nc1nccc(-c2c(-c3ccc(F)cc3)nc3c(N)nccn23)n1`: the “inhibition (INH)” value (in data set [1]; in data set [9]; at Aurora kinase B [12]; in data set [14]) was “Not Active” each time. In addition, the Activity result in data set [2] and in [6] was “Non-Toxic” throughout. The IC50 at CDK2/Cyclin A2 [3] is 800 nM; in data set [4], 40 nM; at CDK9/cyclin T1 [5], 500 nM; in data set [7], 35 nM; in data set [8], 10 µM; with Leishmania donovani it was 0.3 µM. In addition, the half-maximal inhibitory concentration (IC50) in the data set with Leishmania major was 34.1 µM; in data set [13] it was 1.1 µM. The cytotoxic concentration (CC50) at 48 h in [10] is 4.69 µM. In data set [11], the CC50 at 96 h was determined as 32.8 µM.

Regarding `CN(C)c1nccn2c(-c3cccnc3)c(-c3ccc(F)cc3)nc12`, the 50% inhibitory concentration (IC50) on CDK2/Cyclin A2 [15] was > 10 µM; at CDK9/cyclin T1 [17], > 10 µM; with Leishmania infantum, > 50 µM; in [18], > 10 µM; in [19], > 100 µM; in [20], > 10 µM. Moreover, the 50% inhibitory concentration (IC50) in the data set with Leishmania braziliensis was > 50 µM; in the data set with Leishmania donovani it was > 50 µM; in the data set on Leishmania major, > 50 µM; in [22], > 100 µM; in the data set on Leishmania amazonensis it was > 50 µM; in [25] it was > 10 µM. Besides, the Activity result in data set [2] and in [6] was “Non-Toxic” in each case. Also, the “inhibition (INH)” value (in [16]; in data set [21]; on Aurora kinase B [23]; in data set [24]) was “Not Active” each time. In data set [10], the CC50 at 48 h worked out at 43.9 µM. Also, in [11], the CC50 at 96 h worked out at 48.9 µM.

For the compound `CN(C)c1nccn2c(-c3cnc(N)nc3)c(-c3ccc(F)cc3)nc12`, the IC50 is > 10 µM on CDK2/Cyclin A2 [15]; > 10 µM at CDK9/cyclin T1 [17]; > 50 µM in the data set with Leishmania infantum; > 10 µM in [18]; > 100 µM in data set [19]; > 10 µM in data set [20]. Moreover, the concentration for half-maximal inhibition (IC50) was > 50 µM in the data set on Leishmania braziliensis; > 50 µM in the data set on Leishmania donovani; > 50 µM with Leishmania major; 15.9 µM in [22]; > 50 µM in the data set with Leishmania amazonensis; > 10 µM in [25]. Besides, the Activity entry in data set [2] and in data set [6] was “Non-Toxic” in each case. Also, the “inhibition (INH)” value (in data set [16]; in data set [21]; at Aurora kinase B [23]; in [24]) was “Not Active” each time. The CC50 at 48 h in data set [10] was 49 µM. Moreover, in data set [11], the 50% cytotoxic concentration (CC50) at 96 h was > 100 µM.
